The values below come from ChEMBL document CHEMBL4888484, “Replenishing the malaria drug discovery pipeline: Screening and hit evaluation of the MMV Hit Generation Library 1 (HGL1) against asexual blood stage Plasmodium falciparum ,using a nano luciferase reporter read-out” (2022).

Structures are written as SMILES. In all, about 150,000 compounds went through this assay and about 540 (0.36%) showed an effect of 50% or more. The list shows a part of the results.

This assay relates to Plasmodium falciparum. The assay is described as follows: Primary screen in NF54 nanoGlo assay, in single point, at 2uM, 72h; a lower Z score goes with more inhibition. The class given is functional, Erythrocyte. The conditions noted are these: timepoint 72 hour.
On to `Cc1nn(C)c2nc(-c3ccccn3)nc(N3CCC[C@H](CO)C3)c12`, for which the % Inhibition – broadly, the relative decrease from the control value, in per cent – came to 2% and the Z score is -0.25.
In the case of `CC(C)c1cc(C(=O)N2CCN(C(C)C)CC2)nc2ccnn12`, the “% Inhibition” value is -6% and the Z score was determined as 0.97.
Turning to `CCn1c(C)nnc1COc1ccc(S(=O)(=O)N2CCCC2)cc1`, the “% Inhibition” value turned out to be 5% and the Z score is recorded as -0.65.
With `NC(=O)[C@@H]1CCCCN1C(=O)c1ccnc2c1CC(=O)N2`, the “% Inhibition” value is reported as -13% and the Z score was 1.66.
With `Cn1cnnc1-c1cncc(NCc2ccc(OC(F)F)cc2)c1`, the “% Inhibition” value is -11% and the Z score came out at 1.77.
Consider `COc1cnc(N2CCC3(CC2)CC(=O)N(Cc2cccc(OC)c2)C3)nc1`, for which the “% Inhibition” value came out at 2% and the Z score was -0.34.
On to `CCOC(=O)c1cnc(NC(=O)c2ccc(S(C)(=O)=O)cc2)[nH]1`, for which the “% Inhibition” value is -6% and the Z score was found to be 0.76.
On the same counts, the results for `Cc1[nH]c(=O)c(C#N)c(C)c1CCC(=O)N(C)CC1CCCCC1` are 26% and -3.49.
On the same counts, the results for `O=C(Nc1cccc(-c2ccsc2)c1)NC1CC2CCC1O2` (stereo not drawn) are 7% and -0.93.
On the same counts, the results for `O=C(NCCCOCC1CC1)N1CCN(C2CC2)CC1` are 24% and -2.66.
As for `O=C(c1ccc(F)cc1Cl)N1CC[C@H](c2ccsc2)C1`, the “% Inhibition” value was -7% and the Z score is given as 1.32.
Regarding `COc1ccc(C(c2c[nH]c3ccccc23)c2c[nH]c3ccccc23)c2ccccc12`, the “% Inhibition” value is listed as -13% and the Z score was 2.42.
Take `O=C1[C@@H]2CN(CCn3ccnc3)CCN2C(=O)N1c1ccccc1`: the “% Inhibition” value was -18% and the Z score came to 1.61.
On the same counts, the results for `COc1ncc(Br)cc1CNC(=O)NC[C@H]1CCN1C1CC1` are 2% and -0.37.
On the same counts, the results for `COc1ccc(S(=O)(=O)Oc2ccccc2CN(CC2CC2)C(C)=O)cc1` are -9% and 0.91.
On the same counts, the results for `CC1CN(C(=O)CS(=O)(=O)Cc2nnc(C3CCC3)n2C)CC(C)O1` (stereo not drawn) are -9% and 1.32.
For `O=C(NCC1(c2ccccc2)CC1)C1=NN(c2ccccc2)C(=O)CN1`, the “% Inhibition” value is 12% and the Z score is on record as -1.89.
Take `COc1ccc([C@@H](NC(=O)N(C)Cc2cccnc2)C(F)F)cc1F`: the “% Inhibition” value was -11% and the Z score stood at 1.34.
Regarding `COc1cccc(CNc2nccc(N(C)C)n2)c1OC`, the “% Inhibition” value is listed as -8% and the Z score came out at 1.19.
In the case of `CC(=O)N1CCC(N[C@H]2CCCc3c2cnn3-c2ccc(C)c(C)c2)CC1`, the “% Inhibition” value is listed as -12% and the Z score was found to be 1.64.
Regarding `COc1cc(C(=O)NC2CC3CCC(C2)S3(=O)=O)ccn1` (stereo not drawn), the “% Inhibition” value is -7% and the Z score was determined as 0.91.
As for `Cc1ccc2nc(-c3ccc(N4C(=O)C[C@H](N5CCN(CCOCCO)CC5)C4=O)cc3)sc2c1`, the “% Inhibition” value is listed as -12% and the Z score came to 2.23.
`O=C(N[C@H]1CCOC12CCOCC2)c1ccnc2cc(Cl)ccc12`: the “% Inhibition” value is -1% and the Z score is reported as 0.11.
`O=C(NCc1ccc2c(c1)OCO2)[C@H]1CCCN(c2nc3cccnc3s2)C1`: the “% Inhibition” value is reported as -14% and the Z score amounted to 1.23.
In the case of `O=C(CCN1CCCCO1)N1CCC[C@H](Nc2ccc3c(c2)OCCO3)C1`, the “% Inhibition” value is reported as -5% and the Z score is given as 0.92.
With `C=CCNC(=O)COc1cccc(C(C)C)c1`, the “% Inhibition” value was found to be 5% and the Z score is on record as -0.65.
Consider `O[C@H]1CC[C@H](Nc2ncc(Cl)cn2)CC1`, for which the “% Inhibition” value came out at 2% and the Z score is -0.21.
Turning to `c1nc(CCNc2nncc(-c3ccc(C4CCCCC4)cc3)n2)cs1`, the “% Inhibition” value is listed as -3% and the Z score is 0.39.
For the compound `CC(C)(C)N1CCN(C[C@H]2CCCN(S(C)(=O)=O)C2)c2ccccc21`, the “% Inhibition” value is reported as -8% and the Z score came to 1.15.
Turning to `Cc1nn(-c2ncccn2)c2c1[C@@H](c1ccccc1)CC(=O)N2`, the “% Inhibition” value amounted to 41% and the Z score was -4.6.
For `O=C(Nc1nc(CCc2c[nH]c3ccccc23)n[nH]1)c1cccnc1`, in that order: 36% and -1.09.
As for `Cc1cc(C)n(-c2ccc(N3CCC(NCc4ccoc4)CC3)cc2)n1`, the “% Inhibition” value is -18% and the Z score is 1.59.
For `Nc1nnnn1CC(=O)NCCCc1ccccc1`, the “% Inhibition” value is 2% and the Z score was -0.47.
For `O=C1CC[C@H](C(=O)N2CCCO2)CN1CCc1ccccc1`, in that order: -5% and 0.69.
On to `COC(=O)N[C@@H](C)C(=O)NCCn1nc(C(F)(F)F)cc1C`, for which the “% Inhibition” value is -19% and the Z score turned out to be 2.4.
Turning to `c1cncc(Cc2nnc3n2CCN(c2nccc(C4CCCC4)n2)CC3)c1`, the “% Inhibition” value came to 3% and the Z score is -0.51.
For `C[C@@H](c1cccc(-c2nccn2-c2ccc(S(N)(=O)=O)cc2)c1)N(C)C`, in that order: -15% and 2.91.
Consider `CC(CCc1ccccc1)NC(=O)NC1CC(=O)N(c2ccccc2)C1` (stereo not drawn), for which the “% Inhibition” value was determined as 15% and the Z score is -1.96.
For `Cc1ccc(-n2cccc2CC(=O)NCCN2CCCCC2)cc1`, in that order: 0% and 0.04.
As for `O=S1(=O)CCC[C@H](NS(=O)(=O)c2ccco2)C1`, the “% Inhibition” value is -5% and the Z score amounted to 0.94.
Turning to `O=C(O)[C@@]1(CC2CC2)CCCN(Cc2ccc3c(c2)OCCO3)C1`, the “% Inhibition” value is recorded as 8% and the Z score is -1.3.
As to `Cc1nn(-c2nc3ccccc3[nH]2)c2c1[C@@H](c1cccnc1)CC(=O)N2`, the “% Inhibition” value is given as 68% and the Z score is on record as -14.32.
Regarding `C[C@H](NC(=O)c1ccc(C#N)cn1)c1cccc(N2CCCC2)c1`, the “% Inhibition” value stood at 1% and the Z score was -0.15.
On to `Cc1noc(C)c1CCC(=O)Nc1n[nH]c(CCC2CCCC2)n1`, for which the “% Inhibition” value was 7% and the Z score is -0.81.
On to `CCN(CCn1cccn1)Cc1c(C(=O)N(C)C)nc2ccc(Cl)cn12`, for which the “% Inhibition” value is recorded as -5% and the Z score came to 0.64.
Regarding `CN(C)c1ncc2c(=O)n(C)ccc2n1`, the “% Inhibition” value is reported as -9% and the Z score worked out at 1.34.
As to `COc1ccc(N2CCN(C(=O)[C@H]3CCC[C@H]3NC(=O)c3ccncc3)CC2)cc1`, the “% Inhibition” value is -13% and the Z score is 1.67.
In the case of `COc1ccccc1-c1nc2c([nH]1)c(C)nn2[C@@H](C)C1CC1`, the “% Inhibition” value is -3% and the Z score was found to be 0.39.
For `COc1ccc(C(=O)N2C[C@@H](F)[C@@H](OCc3nc4ccccc4[nH]3)C2)cc1`, in that order: 14% and -1.65.
Regarding `CCn1nc(CC2CCN(C)CC2)nc1[C@H]1CC(=O)N(C2CCCC2)C1`, the “% Inhibition” value is 1% and the Z score is listed as -0.15.
Consider `COCCC(=O)N1CCC[C@H](S(=O)(=O)N2CCc3ccccc32)C1`, for which the “% Inhibition” value was -15% and the Z score is 1.92.
On the same counts, the results for `Cc1noc([C@H]2CCCN(C(=O)c3nc4cccnc4s3)C2)n1` are -2% and 0.32.
In the case of `CCc1occc1C(=O)NCC1CCC(C(=O)N(C)C)O1` (stereo not drawn), the “% Inhibition” value stood at 2% and the Z score is recorded as -0.31.
In the case of `O=C1N[C@H]2C[C@@H](C(=O)NC[C@H]3O[C@H](CCOc4cc(C5CCCC5)ccc41)CC[C@@H]3O)N(CC1CCCCC1)C2`, the “% Inhibition” value is listed as 32% and the Z score is on record as -3.66.
For `CCn1cc(S(=O)(=O)N2CCOc3c(F)cc(F)cc32)cn1`, the “% Inhibition” value is on record as -2% and the Z score came to 0.31.
`CCc1noc(C)c1C(=O)N[C@H]1CCS(=O)(=O)C1`: the “% Inhibition” value was -5% and the Z score was 0.49.
For the compound `CCC(=O)N1CCc2ccc(OC(CC)C(=O)NCc3ccccc3)cc2C1c1cccc(F)c1` (stereo not drawn), the “% Inhibition” value was -7% and the Z score worked out at 0.62.
For the compound `CCCCC[C@H](C)NC(=O)c1cncn1-c1cccc(-c2cccnc2)c1`, the “% Inhibition” value is listed as -17% and the Z score worked out at 2.09.
As to `CC(=O)N1CCCN(C(=O)Cn2ccc3ccccc32)CC1`, the “% Inhibition” value is listed as -12% and the Z score came to 1.03.
`CN(C(=O)CN1CCCC1c1ccccc1)C1CCS(=O)(=O)C1` (stereo not drawn): the “% Inhibition” value is given as -7% and the Z score turned out to be 1.31.
For `O=C(c1cccc(S(=O)(=O)N2CCCCC2)c1)N1CCc2[nH]c3ccc(F)cc3c2C1`, in that order: -4% and 0.75.
As for `O=C(NCC(F)(F)F)C(=O)N1CCC(Oc2cccc(Br)c2)CC1`, the “% Inhibition” value is recorded as -8% and the Z score turned out to be 0.72.
For `CCn1ccc(CNCCNc2ccncc2C)n1`, the “% Inhibition” value is recorded as -3% and the Z score is 0.68.
For the compound `N#CC1(C(=O)N2CCCN(C(=O)C3(C#N)CCCC3)CC2)CCCC1`, the “% Inhibition” value is on record as -5% and the Z score is given as 1.12.
As to `O=S1(=O)CCN(c2cc(-c3ccccc3F)nc3ccnn23)CC1`, the “% Inhibition” value is -8% and the Z score amounted to 1.18.
Turning to `O=C1C[C@H](Nc2ccc3c(c2)OCO3)C(=O)N1`, the “% Inhibition” value is listed as -1% and the Z score stood at 0.25.
Take `COCc1ccccc1COC(=O)c1cnn2c1CCCC2`: the “% Inhibition” value is -30% and the Z score is 3.1.
On the same counts, the results for `CCC=C(C)C(=O)Nc1ccc(C(C)(C)C(=O)O)cc1` are 7% and -0.89.
Turning to `COc1ccc(CCNC(=O)[C@H](C)n2nc3c(cc2=O)CCC3)cc1OC`, the “% Inhibition” value was 10% and the Z score is recorded as -1.32.
As for `CN1CCn2cc(S(=O)(=O)Nc3ccc(F)cc3)cc2C1=O`, the “% Inhibition” value is recorded as -3% and the Z score was found to be 0.55.
With `Cc1cnccc1C(=O)N1CCN(C2CC2)c2ccc(F)cc21`, the “% Inhibition” value worked out at 2% and the Z score was -0.33.
As to `COc1ccc2c(c1)[C@H](C)N(C(=O)CCn1nnnc1C)CC2`, the “% Inhibition” value is given as 11% and the Z score was -1.5.
`C[C@H](C(=O)N1CCN(C)CC1)C(C)(F)F`: the “% Inhibition” value was -4% and the Z score is recorded as 0.66.
`CN(C)CCNS(=O)(=O)c1c[nH]c2c(Br)cccc12`: the “% Inhibition” value stood at 31% and the Z score is -3.96.
Take `O=C(c1ccsc1)N1CCC(F)(C(=O)N2CCCC2)CC1`: the “% Inhibition” value is on record as -10% and the Z score is reported as 1.35.
As to `CCc1cccc(NCc2ccccc2-c2nnc(-c3ccccc3Cl)o2)c1`, the “% Inhibition” value is listed as -1% and the Z score worked out at 0.22.
`Cc1nc(C)c(C(=O)N[C@@H](C)c2cc(Cl)cc(Cl)c2F)o1`: the “% Inhibition” value was -4% and the Z score came to 0.75.
On the same counts, the results for `COc1ccc(-c2noc(-c3c(C)cc(C)n(CC(=O)NCc4ccc(F)cc4)c3=O)n2)cc1` are 6% and -0.85.
For `CC[C@H](C)n1nc(C)c2[nH]c(-c3cnn(-c4ccccc4)c3)nc21`, the “% Inhibition” value stood at 17% and the Z score is -2.1.
Take `Cc1cccc(C)c1OCC(O)CNC(=O)NC1CCCC(N(C)C)C1` (stereo not drawn): the “% Inhibition” value is -8% and the Z score stood at 1.07.
In the case of `Cc1nc(C(=O)NCc2ccc(N(C)C)c(C)c2)c[nH]1`, the “% Inhibition” value is given as 5% and the Z score is recorded as -0.64.
On to `CCc1nc(-c2c3n(c(=O)[nH]c2=O)CCCCC3)no1`, for which the “% Inhibition” value was -10% and the Z score worked out at 1.09.
Take `COc1cccc(C(=O)N(CC(=O)N2CCN(c3ccc(-c4ccc(Cl)cc4Cl)nn3)CC2)C(C)C)c1`: the “% Inhibition” value worked out at 0% and the Z score was -0.03.
As for `CC(C)(C)NC(=O)CN1C(=O)[C@]2(CC(=O)Nc3c2cnn3-c2ccccc2)c2ccccc21`, the “% Inhibition” value was -8% and the Z score came to 0.82.
